Results published in PubChem BioAssay AID248 (DTP/NCI, 2004).
Toxic doses and inconclusive results are not listed. Certain results were filed several times, with different values. The list is limited to them. There may be further records. Values that stand side by side do not match, cause unknown; dose, time, organism, isomer or construct need not be as stated for each record.

Test system: L1210 leukemia ip in BDF1 mice, survival T/C
Test: NCI In Vivo Anticancer Drug Screen. Data for tumor model L1210 Leukemia (intraperitoneal) in B6D2F1 (BDF1) mice
Details: higher = longer survival

SMILES: Cc1ccc(C(=O)Nc2ncn(C3CC(O)C(CO)O3)c(=O)n2)cc1 (centres undefined)
- T/C (endpoint: mean survival time, dose: 50.0 mg/kg/injection, schedule: Q04DX003 (ip), vehicle: saline with Tween-80): 108 % of control and 181 % of control

SMILES: O=S(=O)(CCl)OCCCCOS(=O)(=O)CCl
- T/C (endpoint: mean survival time, dose: 89.0 mg/kg/injection, schedule: Q01DX001 (ip), vehicle: saline): 104 % of control, 107 % of control, 151 % of control

SMILES: COc1cccc2c1C(=O)c1c(O)c3c(c(O)c1C2=O)CC(O)(C(=O)CO)CC3OC1CC(N)C(O)C(C)O1 (centres undefined)
- T/C (endpoint: median survival time, dose: 6.6 mg/kg/injection, schedule: Q01DX005 (ip), vehicle: water): 121 % of control and 155 % of control
- T/C (endpoint: median survival time, dose: 19.0 mg/kg/injection, schedule: Q04DX003 (ip), vehicle: water): 115 % of control and 150 % of control
